Test results published in article PMC4336329 (PLoS ONE, 2015).
About 14,000 (4.5%) of roughly 310,000 compounds showed an effect of 50% or more. The effect is printed as a negative number. The list shows a part of the results.

biological target: human ether-à-go-go-related gene (hERG) potassium channel (human, UniProt Q12809); assay: primary screen, population patch clamp on CHO cells stably expressing hERG
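Note: peak tail current of the secondary pulse compared with the same well before compound.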

human ether-à-go-go-related gene (hERG) potassium channel, sequence (Q12809 whole entry, looked up): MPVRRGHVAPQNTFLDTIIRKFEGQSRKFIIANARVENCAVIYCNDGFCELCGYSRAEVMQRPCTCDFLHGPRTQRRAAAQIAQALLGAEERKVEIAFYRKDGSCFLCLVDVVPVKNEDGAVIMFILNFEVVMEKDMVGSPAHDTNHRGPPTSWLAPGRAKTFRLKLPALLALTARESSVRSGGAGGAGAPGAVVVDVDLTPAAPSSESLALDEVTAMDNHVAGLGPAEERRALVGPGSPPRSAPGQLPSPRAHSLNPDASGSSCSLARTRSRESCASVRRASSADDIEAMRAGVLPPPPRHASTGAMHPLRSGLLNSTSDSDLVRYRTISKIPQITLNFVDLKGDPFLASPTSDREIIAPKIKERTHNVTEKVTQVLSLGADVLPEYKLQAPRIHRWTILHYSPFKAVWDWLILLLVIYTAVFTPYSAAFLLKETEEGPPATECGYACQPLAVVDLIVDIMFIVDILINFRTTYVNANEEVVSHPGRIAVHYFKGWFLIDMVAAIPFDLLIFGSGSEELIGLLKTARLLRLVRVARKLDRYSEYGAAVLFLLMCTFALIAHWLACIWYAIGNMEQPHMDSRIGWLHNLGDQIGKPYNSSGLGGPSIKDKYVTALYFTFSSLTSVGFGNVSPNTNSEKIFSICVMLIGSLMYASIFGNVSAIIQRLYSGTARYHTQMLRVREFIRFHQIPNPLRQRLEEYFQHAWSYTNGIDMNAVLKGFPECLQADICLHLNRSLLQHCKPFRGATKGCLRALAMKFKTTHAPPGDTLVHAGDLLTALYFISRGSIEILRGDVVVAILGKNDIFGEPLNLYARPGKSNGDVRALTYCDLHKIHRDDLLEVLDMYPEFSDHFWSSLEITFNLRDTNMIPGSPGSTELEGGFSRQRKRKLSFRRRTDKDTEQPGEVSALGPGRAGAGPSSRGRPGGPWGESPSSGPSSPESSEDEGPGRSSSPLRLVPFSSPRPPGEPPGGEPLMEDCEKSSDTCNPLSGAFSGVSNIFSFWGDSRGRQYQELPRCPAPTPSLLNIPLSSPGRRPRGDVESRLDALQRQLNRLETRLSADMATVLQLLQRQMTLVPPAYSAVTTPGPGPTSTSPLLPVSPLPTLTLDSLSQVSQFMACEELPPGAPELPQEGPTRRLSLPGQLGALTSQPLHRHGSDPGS

Compound | hERG current change (%, negative = inhibition) at 10uM [%]
O=[N+]([O-])c1ccc(C2=CSC3=NCCN23)cc1 | -32.9
O=C(c1ccc(-c2ccccc2)cc1)N1CCCC1 | 7.81
COc1cc(OC)c(NC(=O)Cn2cccc2)cc1Cl | 5.76
CC(NCC(=O)Nc1cc(S(=O)(=O)N2CCOCC2)ccc1N1CCOCC1)c1ccco1 (stereo not shown) | -27.7
Cc1ccc(NC(=O)C2CC(=O)n3c(nc4ccccc43)N2)cc1 (stereo not shown) | 8.39
Cc1cc(C(=O)OCC(=O)Nc2ncc(C(F)(F)F)cc2Cl)c(C)o1 | 0.866
CCOC(=O)C1=C(CS(=O)(=O)c2ccccc2)NC(=O)NC1c1cc(OC)c(O)c(OC)c1 (stereo not shown) | 15.6
COc1cccc(CC(=O)OCC(=O)N(C)CC(=O)Nc2ccc(F)cc2)c1 | -9.44
CCN(CC)c1ccc(C2C(C(=O)OC)=C(C)NC(C)=C2C(=O)OC)cc1 | -4.04
CC(=O)Nc1ccc(-c2cn3ccsc3n2)cc1 | 6.9
O=C(Nc1ccc(F)cc1)C1CCN(S(=O)(=O)c2cccc3nonc23)CC1 | 2.91
Cc1cc(NCc2ccc3c(c2)OCO3)n2nc(C)nc2n1 | -14.6
COc1ccc(C)cc1S(=O)(=O)N1CCN(C(=O)c2ncoc2-c2ccc(F)cc2)CC1 | 23.5
CC(=O)N1c2ccc(S(=O)(=O)NCCC(=O)Nc3ccc(F)cc3C)cc2CC1C (stereo not shown) | 0.977
CCCOc1ccc(NC(=O)CC2C(=O)N(C)C(=S)N2Cc2ccc3c(c2)OCO3)cc1 (stereo not shown) | 2.31
COC(=O)C1=C(N)Oc2cc(C)n(CC3CCCO3)c(=O)c2C1c1ccccc1 (stereo not shown) | 11.3
N#Cc1cc2cc3c(cc2nc1NCCNC(=S)NCCCN1CCOCC1)OCO3 | 14.2
Cc1cc(Nc2ccccc2)n(-c2ccc(Br)cc2)n1 | 2.41
O=c1cc(N2CCCCC2)c(-c2ccccc2)nn1Cc1ccccc1 | -18.6
O=C(c1ccccc1)c1ccc(Oc2ncccn2)cc1 | 13
COc1ccc(OCC(O)CNC(=O)c2ccc(Br)cc2)cc1 (stereo not shown) | -7.75
C[C@H](NC(=O)c1ccco1)C(=O)N1CCCC1 | 21.7

Compound | hERG current change (%, negative = inhibition) at 10uM [%]
CCOc1ccc(C(=O)Nc2nnc(C3=COCCO3)o2)cc1 | 15.9
CCCCC1(Cc2ccc(OC)c([N+](=O)[O-])c2)C(=O)N(c2ccccc2)N(c2ccccc2)C1=O | 1.71
CC(C)NC(=O)C1(c2ccccc2)CC1(Cl)Cl (stereo not shown) | 14.5
Cc1nn(C)c(Cl)c1CN1CCCC(C(=O)Nc2cccc(-n3cccn3)c2)C1 (stereo not shown) | -50.2
CCOc1cc(/C=N/NC(=O)CSc2nncn2C)ccc1OCc1cccc(C)c1 | -15.5
Cn1cc(C(=O)c2cccc(Cl)c2)cc1C#N | 12.4
CC(=O)N1CCN(c2ccccc2NC(=O)c2ccc(-c3cccc([N+](=O)[O-])c3)o2)CC1 | -75.4
Cc1cccc(CCN2C(N(C)C)=NC[C@@H]2C)c1 | -7.74
Cc1ccc(C(=O)Oc2ccccc2N2CCOCC2)cc1 | 12.2
CC1=C(C(=O)OCC2CCCO2)C(c2coc3ccccc3c2=O)C2=C(CCCC2=O)N1 (stereo not shown) | -6.3
O=S(=O)(c1ccccc1)N1CC1c1ccccc1 (stereo not shown) | 1.43
CCC(OC(=O)c1nsc(Cl)c1Cl)C(=O)NCc1cccs1 (stereo not shown) | -14.6
COc1ccc(OC)c2[nH]c(=O)c(CCNC(=O)C(C)C)cc12 | 26.5
O=C(N/C(=C/c1cccnc1)C(=O)N1CCOCC1)c1ccccc1Br | 20.9
CCN(CC)c1ccc(S(=O)(=O)N2CCOCC2)cc1NC(=O)CN1CCN(Cc2ccccc2)CC1.Cl | -45.7
COc1cc(/C=N/NC(=O)c2ccncc2)ccc1OCCN1CCCCC1 | -3.37
COC(=O)c1ccccc1NC(=O)c1ccc(COc2ccccc2)o1 | 4.19
CN(Cc1ccccc1)C(=O)c1ccc(NC(=O)C2=CSCCO2)cc1 | -0.926
Cl.Nc1nc(Nc2ccc(Cl)cc2)nc2ccccc12 | -2.78
CC1CCN(S(=O)(=O)c2cn(CC(=O)N3CCN(c4cccc(C(F)(F)F)c4)CC3)cn2)CC1 | -54
CC(=O)Nc1ccc(NC(=O)C/C(C)=N/NC(=O)COc2cc(C)c(Br)cc2Br)cc1 | 0.722
COCCNC(=S)N/N=C1\CC(C)CC(C)(C)C1 (stereo not shown) | 6.32

Compound | hERG current change (%, negative = inhibition) at 10uM [%]
COc1ccc(C(=O)NCCCN(C)CCCNC(=O)c2ccc(OC)cc2)cc1 | -30.5
CN(C(=O)COC(=O)c1cn(-c2ccccc2)nc1-c1ccccc1)C1CCS(=O)(=O)C1 (stereo not shown) | -16.6
CCN1C(=O)[C@H]2[C@@H](c3ccc(C)cc3)N3C(=O)N(c4ccc(C(F)(F)F)cc4)C(=O)[C@@]3(Cc3ccccc3)[C@H]2C1=O | 16.3
NNCCc1ccccc1.O=S(=O)(O)O | 6.44
Cc1ccc(-n2c(=O)c3ccccc3n(CC(=O)NCc3ccco3)c2=O)cc1 | 6.23
COc1ccccc1C(=O)NC(C)C(c1cccs1)N1CCOCC1 (stereo not shown) | 5.67
CCOc1ccccc1NC(=O)c1ccc2nc[nH]c2c1 | 19.9
CCC1Oc2nc(SC)nnc2-c2ccccc2N1C(=O)c1ccccc1 (stereo not shown) | -4.97
CN1C(=O)/C(=N/OC(=O)c2ccccc2Br)c2ccccc21 | 12.3
O=C(COc1ccccc1)N1CCCC1 | 15.6
CCOC(=O)c1ccc(NC(=O)CN2CCN(Cc3ccccc3)CC2)cc1 | -51
COc1ccc(/C=C(\C#N)C(=O)OCC(=O)Nc2c(C)cccc2C(C)C)cc1 | 16
COc1c(Cl)cc(Cl)cc1/C=N/NC(=O)c1nnn(-c2nonc2N)c1CN1CCC(C)CC1 | 13.1
CC(=O)Nc1ccc(S(=O)(=O)Nc2cccc3[nH]ncc23)cc1 | 33.1
C=CCn1c(N)cc(=O)nc1SCC(=O)Nc1ccccc1 | 13.4
O=C1/C(=C/c2ccc(Br)cc2)Oc2cc(O)ccc21 | 13.5
COC(=O)c1c(NC(=O)CCl)sc(C(=O)N2CCOCC2)c1C | 6.78
CCN(CC)c1ccc(C2CC(=O)NC3=C2C(=O)CC(C)(C)C3)cc1 (stereo not shown) | 4.79
COc1ccc(COc2cc(-c3cccc(OC)c3)nc3ccc(NC(=O)C(C)C)cc23)cc1 | 3.04
CCN(CC)c1ccc(C=C2C(=O)OC3(CCCC3)OC2=O)cc1 | -9.52
Cc1c(Cl)cccc1NC(=O)C1C2C=CC(C2)C1C(=O)O (stereo not shown) | 10.2
CSc1ccc(C(=O)C2CCCN(C(=O)c3cccnc3SC)C2)cc1 (stereo not shown) | -32.4

Compound | hERG current change (%, negative = inhibition) at 10uM [%]
CCOC(=O)C1(C/C(C)=N/NC(N)=O)CC(C)(C)OC1=O (stereo not shown) | 34.8
N/C(=N\OC(=O)c1ccco1)c1ccccn1 | 24.2
COCCNC(=O)C(c1ccc(F)cc1)N(Cc1ccccc1)C(=O)CCC(=O)Nc1nccs1 (stereo not shown) | 0.73
CCNC(=O)c1c(N)sc2c1CCCCC2 | 1.62
Cc1ccc(NC(=O)C2CCCN(c3ncnc4c3nc3n4CCCCC3)C2)cc1Cl (stereo not shown) | -6.39
CC(C)CCNC(=O)NC(=O)CN1C(=O)NC2(CCCCC2)C1=O | -7.71
O=S(=O)(c1ccc2ncn(O)c2c1)N1CCOCC1 | 14.1
C/C(=N\NC(=O)CNc1cccc(C)c1)c1ccc(Br)s1 | -7.6
O=C(c1ccc(CNS(=O)(=O)c2ccccc2)cc1)N1CCN(Cc2ccccc2)CC1 | -33
COc1ccc(S(=O)(=O)N2CCCC2C(=O)Nc2ccc(C)cc2)cc1 (stereo not shown) | -15.3
O=C(CSc1ccc(Cl)cc1)Nc1ncccn1 | 0.972
Cc1ccc(S(=O)(=O)C2(S(=O)(=O)c3ccc(C)cc3)CC2)cc1 | -3.92
COc1ccc(Br)cc1CN(C)C(=O)c1ccc2c(c1)NC(=O)C(C)S2 (stereo not shown) | -2.12
CCOc1ncccc1C(=O)OCC(=O)Nc1cc(S(=O)(=O)N2CCOCC2)ccc1Cl | -33.8
COc1ccc(C(=O)CC(=O)Nc2ccc([N+](=O)[O-])cc2)cc1 | -1.39
COc1ccc(C)cc1S(=O)(=O)N(C)CC(=O)NC1CCCCCC1 | 6.33
N#C/C(=C\N1CCN(Cc2ccc3c(c2)OCO3)CC1)c1nc2ccccc2s1 | -52.8
Cc1cc(C)c(C(=O)Cn2cnc3cc([N+](=O)[O-])ccc3c2=O)cc1C | 19.2
COc1cc2c(cc1OC)CN(Cc1cccs1)CC2 | -42.9
COc1ccc(CNC(=O)C2COc3ccccc3O2)c(OC)c1 (stereo not shown) | -26.4
C=CCNc1nc(Cl)nc(NCc2ccco2)n1 | 11.4
CSc1ccc(CN2CCN(C(=O)c3ccc([N+](=O)[O-])cc3)CC2)cc1.O=C(O)C(=O)O | -77.2
